Laboratory results taken from PubChem BioAssay AID1745845 (National Center for Advancing Translational Sciences (NCATS), 2022).
“And” between values parts separate entries of the source, which are not always exact repeats. Identical values can stand only once. In all, about 360,000 compounds went through this assay and about 2,600 (0.72%) were called active. The inconclusive results got no clear call from the source; some entries with a clear call stand among them for comparison. The call rests on the fitted dose curve; in most records, active means well fitted inhibition curve with a large enough effect; inconclusive means small, poorly fitted or top-dose-only effect; inactive means no such curve, though single readings can be large or run the other way. Potencies beside an inconclusive call are fits to weak or partial responses and may not hold up.

test: Primary qHTS for Inhibitors of ATXN expression; settings: HEK-293 ATXN2-luciferase reporter, luminescence, 24 h; series mostly up to 57 µM; further: nearly all actives have a fitted effect of over 55% in size
Method in brief: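 qHTS (up to 57 uM final) was run with 24 h compound exposure of reporter cells at 37 °C. Each well was multiplexed: SteadyGlo luminescence measured ATXN2-luciferase expression after a fluorogenic Gly-Phe-AFC viability readout (25 uM final).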
Potency means the concentration at half of the fitted maximal effect; tags describe the fitted curve by direction and shape.

Row | Structure (SMILES) | Potency
1 | CC(C)OC(=O)OCOP(=O)(CO[C@H](C)Cn1cnc2c(N)ncnc21)OCOC(=O)OC(C)C | inactive and inconclusive: 15.3 µM [inhibitor, partial curve, poor fit]
2 | COc1cc(NC(=O)C(Cc2ccccc2)n2cccc2)cc(OC)c1 (stereo not given) | inconclusive: 22.4 µM [inhibitor, partial curve, poor fit]
3 | O=C(/C=C/c1ccc(Cl)cc1)Nc1ccc(N2CCCCC2)cc1 | inactive
4 | Cc1ccc(-c2nnc3sc(C4COc5ccccc5O4)nn23)cc1 (stereo not given) | inactive
5 | C[C@@H]1CCCCO[C@@H](CN(C)CC2CCCCC2)[C@@H](C)CN([C@H](C)CO)C(=O)c2cc(NS(=O)(=O)c3ccc(Cl)cc3)ccc2O1 | inconclusive: 39.8 µM [inhibitor, single point]
6 | O=C(Nc1ccc([N+](=O)[O-])cc1)N1CCN(C(=O)C2CCCO2)CC1 (stereo not given) | inconclusive: 7.08 µM [inhibitor, single point]
7 | C=C1CCc2c([nH]c3ccc(OCC(C)C)cc23)C1=O | inconclusive: 37.7 µM [inhibitor, single point]
8 | CCCC(=O)N1CCC1(C)C(=O)Nc1ccc(OC(F)F)cc1 (stereo not given) | inactive
9 | CC(=O)c1cccc(NS(=O)(=O)c2cccc(S(=O)(=O)c3ccc(Br)cc3)c2)c1 | inconclusive: 39.8 µM [inhibitor, partial curve, poor fit]
10 | COc1ccc(-c2nc(CSCC(=O)N3CCN(c4ccccc4)CC3)c(C)o2)cc1 | inconclusive: 22.4 µM [inhibitor, partial curve, poor fit]
11 | Cc1ccc(NC(=O)CCS(=O)(=O)c2ccc3c(c2)oc(=O)n3C)c(Br)c1 | inactive
12 | COc1ccc(C)cc1NC(=O)C1CCCN1C(=O)OCc1ccccc1 (stereo not given) | inactive
13 | CCOc1cc(S(=O)(=O)NCCc2c(C)[nH]c3ccc(C)cc23)ccc1Br | inconclusive: 39.8 µM [inhibitor, single point]
14 | COc1ccccc1CC(=O)N1CCN(c2cccc(Cl)c2)CC1 | inactive
15 | COc1ccccc1OC(C)C(=O)N1CCC(Cc2ccccc2)CC1 (stereo not given) | inconclusive: 31.6 µM [inhibitor, single point]
16 | O=C(N/N=C/c1cccs1)c1cccc(NC(=O)c2ccccc2Cl)c1 | inconclusive: 1.19 µM [inhibitor, partial curve, poor fit]
17 | Cc1ccccc1-c1nc(P(=O)(c2ccccc2)c2ccccc2)c(N2CCOCC2)o1 | inconclusive: 37.7 µM [inhibitor, single point]
18 | Cc1ccc(CCNC(=O)c2c(C)nn(-c3ccc(F)cc3)c2-n2cccc2)cc1 | inactive
19 | CCCNC(=O)C1CC(c2ccc(C(F)(F)F)cc2)=NO1 (stereo not given) | inactive
20 | O=C(NC1CCCC1)C(c1ccncc1)N(Cc1ccccc1)C(=O)c1ccc(-c2ccccc2)[nH]1 (stereo not given) | inactive
21 | O=C(Nc1ccc(Cc2ccncc2)cc1)c1ccc(S(=O)(=O)N2CCCC2)cc1 | inconclusive: 14.1 µM [inhibitor, partial curve]
22 | N#Cc1c[nH]n2c(NC3CCCC3)c(-c3ccc(Cl)cc3)nc12 | inactive
23 | Cc1ccc(-c2ccc(S(=O)(=O)Nc3cccnc3)cc2)cc1 | inactive
24 | Cc1ccccc1C(C(=O)NC1CCCCC1)N(C(=O)CNc1ccc(C#N)cc1)c1cccc(F)c1 (stereo not given) | inactive

Row | Structure (SMILES) | Potency
25 | O=C1N(c2ccccc2C(F)(F)F)O[C@@]1(c1ccccc1)C1CCCCC1 | inactive
26 | Clc1ccc2[nH]c3c(NCCN4CCOCC4)ncnc3c2c1 | inconclusive: 20 µM [inhibitor, partial curve, poor fit]
27 | COC(=O)[C@@]1(Cc2ccc(F)cc2)[C@H]2c3cc(C(=O)N4CCCC4)n(CC4CC4)c3C[C@H]2CN1C(=O)c1ccccc1 | inconclusive: 39.8 µM [inhibitor, single point]
28 | COc1ccc(/C=N/NC(=O)c2nc(-c3ccccc3)n(-c3ccccc3)n2)c(O)c1 | active: 3.98 µM
29 | CC(C)c1ccc(-n2c(-c3ccccc3)c[n+]3c2CCc2ccccc2-3)cc1 | inconclusive: 3.36 µM [inhibitor, full curve]
30 | CCOc1ccc(NC(=O)NC23CC4CC(CC(C4)C2)C3)cc1 | inactive
31 | CCCCCN(C(=O)CCC(=O)OCc1cc(C)ccc1C)c1c(N)n(CCCC)c(=O)[nH]c1=O | inactive
32 | Cc1ccc2nc(C3CCCCC3)c(Cc3ccsc3)n2c1 | inconclusive: 39.8 µM [inhibitor, single point]
33 | NS(=O)(=O)c1ccc(CCNC(=O)COC(=O)C2CCN(c3ccc(C(F)(F)F)cn3)CC2)cc1 | inactive
34 | CCN(C(=O)C1CCCN(c2ncnc3c2nc2n3CCCCC2)C1)c1cccc(Cl)c1 (stereo not given) | inconclusive: 22.4 µM [inhibitor, partial curve, poor fit]
35 | Cc1onc(-c2c(F)cccc2Cl)c1C(=O)Nc1nnc(C(F)(F)F)s1 | inconclusive: 14.1 µM [inhibitor, partial curve, poor fit]
36 | COC(=O)c1c(NC(=O)COC(=O)c2ccc(O)cc2)sc2c1CCCCC2 | inconclusive: 39.8 µM [inhibitor, single point]
37 | CC(=O)Nc1ccc(C(=O)Nc2cccc(S(=O)(=O)N(C)c3ccccc3)c2)cc1 | inconclusive: 25.1 µM [inhibitor, single point]
38 | O=C(O)c1ccc2c(c1)C(=O)N(c1nccs1)C2=O | inactive
39 | Cc1ccc(C(=O)CC2(O)C(=O)N(C)c3ccccc32)o1 (stereo not given) | inactive
40 | CC(C)C[C@H](NC(=O)c1nc[nH]c1C(=O)NC1CCN(C(=O)OC(C)(C)C)CC1)C(=O)OC(C)(C)C | inconclusive: 31.6 µM [inhibitor, single point]
41 | OCCNc1c2ccccc2nc2c(F)c(F)c(F)c(F)c12 | active: 7.52 µM
42 | O=c1[nH]c2ccccc2n1CCCN1CCN(C(c2ccccc2)c2ccccc2)CC1 | active: 31.6 µM
43 | O=C(Nc1ccccc1-c1nc2ccccc2s1)c1ccc(Br)o1 | inconclusive: 39.8 µM [inhibitor, single point]
44 | CC(=Cc1ccccc1)C=C1SC(=S)N(CCCC(=O)Nc2ccc(C(=O)O)c(O)c2)C1=O | inactive
45 | CCn1c2ccccc2c2cc(NC(=O)c3cccc(OC)c3)ccc21 | inactive
46 | Cc1cc2nc(CCN(C(=S)NCC(C)C)C3CCCC3)[nH]c2cc1C | inconclusive: 31.6 µM [inhibitor, single point]
47 | Cc1ccc(CSc2nc(-c3ccccc3C)nc3c2Cc2c(CO)cnc(C)c2O3)cc1 | inconclusive: 39.8 µM [inhibitor, single point]
48 | Cc1ccc2cccc(S(=O)(=O)N3CCCc4ccccc43)c2n1 | inconclusive: 2.67 µM [inhibitor, partial curve, poor fit]

Row | Structure (SMILES) | Potency
49 | CN(C)C(CNC(=S)Nc1ccc(Cl)cc1)c1cccnc1 (stereo not given) | inactive
50 | CC(C)[C@H](CO)Nc1nc(Nc2ccc(C(=O)O)c(Cl)c2)c2ncn(C(C)C)c2n1 | inconclusive: 38.5 µM [inhibitor, single point]
51 | CC(=O)c1cccc(-c2ccnc3c2CC(C(=O)NCc2ccccc2)O3)c1 (stereo not given) | inactive
52 | COC(=O)C1CCN(c2csc3ccc(Cl)cc3c2=O)CC1 | inactive
53 | O=C(NCc1ccco1)/C(=C/c1ccc(Br)cc1)NC(=O)c1ccco1 | inactive
54 | Nc1ccccc1NC(=O)c1ccccc1 | inactive
55 | CCOC(=O)c1ccccc1NC(=O)CSc1nc2ccccc2c(=O)n1CCCN1CCOCC1 | inconclusive: 39.8 µM [inhibitor, single point]
56 | CNC(=O)c1ccc2c(C(=Nc3cccc(CN(C)C)c3)c3ccccc3)c(O)[nH]c2c1 | inconclusive: 6.85 µM [inhibitor, partial curve]
57 | Cn1cccc1C(=O)Nc1nc(-c2ccccn2)cs1 | inconclusive: 39.8 µM [inhibitor, single point]
58 | O=C(c1ccc2c(c1)N(Cc1ccc(Cl)cc1)C(=O)c1ccccc1S2(=O)=O)N1CCN(c2ccccn2)CC1 | inconclusive: 3.16 µM [inhibitor, partial curve]
59 | COc1cc(-c2nc3ccc(Cl)cn3c2Nc2ccc3c(c2)OCCO3)ccc1O | inactive
60 | Cc1ccccc1OCC(=O)OCc1cc(=O)n2nc(-c3cccs3)sc2n1 | inactive
61 | Cc1ccccc1NC1=C(Cl)C(=O)OC1OC(=O)c1ccco1 (stereo not given) | inconclusive: 39.8 µM [inhibitor, partial curve, poor fit]
62 | CC1CCCN(c2ncnc3c2cnn3-c2ccc(Cl)cc2)C1 (stereo not given) | inconclusive: 22.4 µM [inhibitor, partial curve, poor fit]
63 | COc1cccc(NC(=O)Cn2c(=O)n(-c3ccccc3)c(=O)c3c2c2cc(OC)ccc2n3C)c1 | inactive
64 | Cc1nn(C)c(C)c1NC(=O)CSc1nc(Cc2ccccc2)nc2c1cnn2-c1ccccc1 | inconclusive: 11.2 µM [inhibitor, partial curve]
65 | O=C(N/N=C/C1CCCCC1)c1ccccc1-n1cccc1 | inactive
66 | CCCNC(=S)Nc1ccc(S(N)(=O)=O)cc1 | inconclusive: 2.12 µM [inhibitor, partial curve]
67 | O=[N+]([O-])c1ccccc1S(=O)(=O)Nc1cccc2cccnc12 | inconclusive: 6.31 µM [inhibitor, partial curve, poor fit]
68 | C=CC(=O)Nc1cccc(Oc2ccnc(Nc3ccc(N4CCN(C)CC4)cc3)n2)c1 | inactive
69 | Cn1c(SCc2ccccc2)nc2ccsc2c1=O | inactive
70 | COc1ccc(-n2nc3c(N4CCCC(C(=O)NCCc5ccccc5C)C4)nnc(C)c3c2C)cc1 (stereo not given) | inconclusive: 25.1 µM [inhibitor, partial curve, poor fit]
